# Data published in the supplement of paper PMC12217912.
# Some of the results follow. The full chains were built here from the parent and the listed change. Inactive controls read about 0.05.
# B1: TEV protease; numbered along this chain (parent)
# chain: MGESLFKGPRDYNPISSSICHLTNESDGHTTSLYGIGFGPFIITNKHLFRRNNGTLVVQSLHGVFKVKDTTTLQQHLVDGRDMIIIRMPKDFPPFPQKLKFREPQREERICLVTTNFQTKSMSSMVSDTSCTFPSGDGIFWKHWIQTKDGQCGSPLVSTRDGFIVGIHSASNFTNTNNYFTSVPKNFMELLTNQEAQQWVSGWRLNADSVLWGGHKVFMVKPEEPFQPVKEATQL
# Variants of: B1
# Assay: raw area under fraction-flipped curve 0-4 h after induction (AUC4h, not background-subtracted), DNA-recorder readout of cleavage of the substrate (dimensionless); higher = more cleavage of the substrate by the protease variant
# Conditions: temperature: 34 °C; time window: 0-4 h after rhamnose induction
# Protocol: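 In vivo DNA recorder in E. coli TOP10(DE3) ΔrhaA at 34 °C. Each TEVp single-site mutant (parent TEVp 0) is paired with a single-site variant of the 7-mer TEVs (canonical ENLYFQ|S). The substrate sits between flexible linkers in a Bxb1-sfGFP-TEVs-SsrA fusion, so cleavage stabilises Bxb1 and speeds flipping of a recombination array, read by NGS. The value is the raw area under the fraction-flipped curve over 0-4 h after rhamnose induction (AUC4h), with ≥20 reads per time point. It is not background-subtracted; inactive controls average about 0.047.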
# 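Also: Bxb1 expression induced with 0.2% (w/v) L-rhamnose at OD600 near 0.5, cultures sampled hourly, flipped fraction per protease–substrate barcode pair counted by paired-end Illumina sequencing.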
Variant,area with substrate ANLYFQS,area with substrate CNLYFQS,area with substrate DNLYFQS,area with substrate FNLYFQS,area with substrate GNLYFQS,area with substrate KNLYFQS,area with substrate LNLYFQS,area with substrate NNLYFQS,area with substrate PNLYFQS,area with substrate RNLYFQS,area with substrate SNLYFQS,area with substrate TNLYFQS,area with substrate WNLYFQS,area with substrate YNLYFQS,area with substrate HNLYFQS,area with substrate QNLYFQS,area with substrate VNLYFQS,area with substrate INLYFQS,area with substrate MNLYFQS
MGESLFKGPRDYNPISSSICHLTNESDGHTTSLYGIGFGPFIITNKHLFRRNNGTLVVQSLHGVFKVKDTTTLQQHLVDGRDMIIIRMPKDFPPFPQKLKFREPQREERICLVTTNFQTKSMSSMVSDTSCTFPSGDGAFWKHWIQTKDGQCGSPLVSTRDGFIVGIHSASNFTNTNNYFTSVPKNFMELLTNQEAQQWVSGWRLNADSVLWGGHKVFMVKPEEPFQPVKEATQL [I139A],0.052,0.0729,0.06,0.0627,0.0633,0.0813,0.0683,0.0488,0.0645,0.074,0.0567,0.0604,0.0698,0.0535,,,,,
MGESLFKGPRDYNPISSSICHLTNESDGHTTSLYGIGFGPFIITNKHLFRRNNGTLVVQSLHGVFKVKDTTTLQQHLVDGRDMIIIRMPKDFPPFPQKLKFREPQREERICLVTTNFQTKSMSSMVSDTSCTFPSGDGSFWKHWIQTKDGQCGSPLVSTRDGFIVGIHSASNFTNTNNYFTSVPKNFMELLTNQEAQQWVSGWRLNADSVLWGGHKVFMVKPEEPFQPVKEATQL [I139S],0.0966,0.0692,0.108,0.075,,0.0748,0.0546,0.0607,0.0845,,0.0648,0.0733,0.0585,0.0659,0.0657,0.064,,,
MGESLFKGPRDYNPISSSICHLTNESDGHTTSLYGIGFGPFIITNKHLFRRNNGTLVVQSLHGVFKVKDTTTLQQHLVDGRDMIIIRMPKDFPPFPQKLKFREPQREERICLVTTNFQTKSMSSMVSDTSCTFPSGDGGFWKHWIQTKDGQCGSPLVSTRDGFIVGIHSASNFTNTNNYFTSVPKNFMELLTNQEAQQWVSGWRLNADSVLWGGHKVFMVKPEEPFQPVKEATQL [I139G],0.0568,0.0685,0.0939,0.0616,,0.0659,,,0.0504,0.067,0.0615,0.0591,0.0596,,0.0626,0.0599,0.054,,
MGESLFKGPRDYNPISSSICHLTNESDGHTTSLYGIGFGPFIITNKHLFRRNNGTLVVQSLHGVFKVKDTTTLQQHLVDGRDMIIIRMPKDFPPFPQKLKFREPQREERICLVTTNFQTKSMSSMVSDTSCTFPAGDGIFWKHWIQTKDGQCGSPLVSTRDGFIVGIHSASNFTNTNNYFTSVPKNFMELLTNQEAQQWVSGWRLNADSVLWGGHKVFMVKPEEPFQPVKEATQL [S135A],0.0702,0.0551,0.0709,0.0723,0.0522,0.0544,0.0583,0.0678,0.0736,,0.0447,0.0636,0.0535,0.0802,0.0584,0.0491,0.0702,0.0628,0.0584
MGESLFKGPRDYNPISSSICHLTNESDGHTTSLYGIGFGPFIITNKHLFRRNNGTLVVQSLHGVFKVKDTTTLQQHLVDGRDMIIIRMPKDFPPFPQKLKFREPQREERICLVTTNFQTKSMSSMVSDTSCTEPSGDGIFWKHWIQTKDGQCGSPLVSTRDGFIVGIHSASNFTNTNNYFTSVPKNFMELLTNQEAQQWVSGWRLNADSVLWGGHKVFMVKPEEPFQPVKEATQL [F133E],0.087,0.0622,0.0898,,,0.0644,0.0604,0.0804,0.0626,,0.0451,0.0626,0.0624,0.0659,0.0785,,0.0554,,0.0644
MGESLFKGPRDYNPISSSICHLTNESDGHTTSLYGIGFGPFIITNKHLFRRNNGTLVVQSLHGVFKVKDTTTLQQHLVDGRDMIIIRMPKDFPPFPQKLKFREPQREERICLVTTNFQTKSMSSMVSDTSCTNPSGDGIFWKHWIQTKDGQCGSPLVSTRDGFIVGIHSASNFTNTNNYFTSVPKNFMELLTNQEAQQWVSGWRLNADSVLWGGHKVFMVKPEEPFQPVKEATQL [F133N],0.0564,0.0648,0.0819,0.0363,0.074,0.0713,0.0643,,0.0638,,0.0859,0.0751,0.0659,0.0637,0.0566,,0.0793,0.0639,
MGESLFKGPRDYNPISSSICHLTNESDGHTTSLYGIGFGPFIITNKHLFRRNNGTLVVQSLHGVFKVKDTTTLQQHLVDGRDMIIIRMPKDFPPFPQKLKFREPQREERICLVTTNFQTKSMSSMVDDTSCTFPSGDGIFWKHWIQTKDGQCGSPLVSTRDGFIVGIHSASNFTNTNNYFTSVPKNFMELLTNQEAQQWVSGWRLNADSVLWGGHKVFMVKPEEPFQPVKEATQL [S127D],0.0634,0.0584,0.0767,,0.0674,0.0711,,,0.0727,,0.0564,0.0461,0.0595,0.061,0.0591,,0.0704,0.0642,0.0853
MGESLFKGPRDYNPISSSICHLTNESDGHTTSLYGIGFGPFIITNKHLFRRNNGTLVVQSLHGVFKVKDTTTLQQHLVDGRDMIIIRMPKDFPPFPQKLKFREPQREERICLVTTNFQTKSMSSMVPDTSCTFPSGDGIFWKHWIQTKDGQCGSPLVSTRDGFIVGIHSASNFTNTNNYFTSVPKNFMELLTNQEAQQWVSGWRLNADSVLWGGHKVFMVKPEEPFQPVKEATQL [S127P],0.0494,0.0661,0.0754,,0.0713,,0.0434,,0.0736,,,0.0594,0.063,0.0573,,,,0.0553,0.07
MGESLFKGPRDYNPISSSICHLTNESDGHTTSLYGIGFGPFIITNKHLFRRNNGTLVVQSLHGVFKVKDTTTLQQHLVDGRDMIIIRMPKDFPPFPQKLKFREPQREERICLVTTNFQTKSMSSMVSDTSCVFPSGDGIFWKHWIQTKDGQCGSPLVSTRDGFIVGIHSASNFTNTNNYFTSVPKNFMELLTNQEAQQWVSGWRLNADSVLWGGHKVFMVKPEEPFQPVKEATQL [T132V],0.0561,0.0662,0.0862,0.0838,0.0745,0.0565,,0.068,0.0747,,0.0752,0.0661,0.057,0.0678,0.0432,,,0.0615,0.0596
